Values joined by “and” are separate entries in the source; they are usually repeats but may differ in a detail not shown here. Identical values can stand only once. The whole screen tested about 48,000 compounds, of which about 1,200 (2.5%) were called active. Another 2% or so got no clear call; they are omitted.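 The calls were made as follows: active = activation of at least 60% and not above a set upper limit (about 1 call in 100 departs from these limits); inconclusive = activation of 40% to 60%, or above that upper limit; inactive = activation under 40%.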 The list shows a part of the results.

Chain of UniProt O75388 (O75388 whole entry, looked up): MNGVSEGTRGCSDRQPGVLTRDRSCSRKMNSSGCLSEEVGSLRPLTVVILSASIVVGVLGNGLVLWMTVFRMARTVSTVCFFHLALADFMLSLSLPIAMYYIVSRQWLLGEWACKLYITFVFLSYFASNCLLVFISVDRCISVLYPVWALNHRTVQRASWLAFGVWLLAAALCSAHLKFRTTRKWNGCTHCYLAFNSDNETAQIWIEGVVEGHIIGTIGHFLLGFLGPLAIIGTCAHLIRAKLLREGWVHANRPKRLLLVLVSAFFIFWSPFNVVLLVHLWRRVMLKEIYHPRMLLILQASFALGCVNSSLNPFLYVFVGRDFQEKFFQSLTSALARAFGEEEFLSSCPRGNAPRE

This test has as its target Probable G-protein coupled receptor 32 (Homo sapiens) (UniProt O75388). As to the kind of experiment: qHTS for Agonists of Human Resolvin D1 Receptor DRV1. Also: 0% is about no effect. The following applies: CHO-K1 GPR32 beta-arrestin PathHunter luminescence, 90 min; at 76.9 µM; active compounds read high; zero percent set by DMSO-only wells. The procedure, abridged:
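PathHunter beta-arrestin recruitment in CHO-K1 cells stably expressing ProLink-tagged GPR32. Cells were exposed to compound for 90 min at 37 C, then chemiluminescence was read after 1 h detection at ambient temperature; DMSO served as basal control.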
A general note: qHTS replaces the single test concentration by a dilution series.
As for `O=C(c1ccc(F)cc1)N1CCC(c2nc(-c3ccc(S(=O)(=O)N4CCCC4)cc3)no2)CC1`, the activation was inactive: -4.66%. The same measure for `CCCOc1ccc(-c2nonc2NC(=O)c2oc3ccc(Cl)cc3c2C)cc1OCCC`: inactive: -1.57%; for `CCc1nn(CC(=O)NCCCN2CCN(CC)CC2)c(=O)c2cc3occc3n12`: inactive: -27.7%. The same measure for `CCOc1ccc(S(=O)(=O)c2cn(Cc3ccccc3C)c3ccc(OC)cc3c2=O)cc1`: inactive: -15.8%; for `CCc1cccc(NC(=O)C2Cc3ccccc3N2C(=O)c2ccccc2)c1` (stereo unspecified): inactive: 2.74%; for `Cc1ccc2nc(COc3ccccc3NC(=O)c3ccccc3F)cc(=O)n2c1`: inactive: -6.52%.

`Cc1ccc2c(c1)c(CC(=O)Nc1ccc(C)c(F)c1)c(C(=O)O)n2C`: the activation is inactive: -0.0721%.

Turning to `CCOc1cccc(C2c3[nH]c4ccccc4c3CCN2C(=O)CSCc2ccc(F)cc2)c1` (stereo unspecified), the activation was inactive: -36.3%.

Regarding `O=C(c1ccc2c(c1)N(Cc1c(F)cccc1Cl)C(=O)c1ccccc1S2)N1CCOCC1`, the activation was inactive: -13.1%. Regarding `CCOC(=O)N1CCN(Cc2nc3cc(NC(=O)C(C)C)ccc3n2C(C)C)CC1`, the activation is inactive: -6.48%. Then `CCCNC(=O)c1ccc(-c2nc(CS(=O)(=O)c3ccc(C)cc3)c(C)o2)cc1`, with inactive: 1.85%. The same measure for `COc1ccc(OC)c(NC(=O)CSc2ncc3c(n2)-c2ccccc2N(C)S3(=O)=O)c1`: inactive: -3.85%; for `O=C(C1COc2ccccc2O1)N(Cc1cccnc1)c1nc2c(Cl)cccc2s1` (stereo unspecified): inactive: -7.47%; for `NC(=O)Cn1c(=O)n(CCCCCC(=O)NCc2ccc(F)cc2)c(=O)c2sccc21`: inactive: -11.4%.

For `COc1ccc(-n2nnc(-c3nsc(NC(=O)c4cccs4)n3)c2C)cc1OC`, the activation was inactive: -0.722%. Then `CCS(=O)(=O)N1CC(=O)N(c2cc(C)ccc2C)C(C)(C(=O)NC2CCCCC2)C1` (stereo unspecified), with inactive: -3.68%; and `Cc1ccc(Cl)cc1NC(=O)N1CCC2(CC1)Oc1ccccc1C(=O)N2Cc1ccccc1F`, with inactive: -20.7%.

With `COc1ccc(-c2cn3c(n2)sc2cc(C(=O)NC4CCCCCC4)ccc23)cc1`, the activation was inactive: -11.3%. The same measure for `Cc1cccc(NC(=O)C(=O)NCCc2sc(-c3ccccc3)nc2C)c1C`: inactive: -0.561%; for `Cc1c(Cl)cccc1NC(=O)C(CCS(C)(=O)=O)N1Cc2ccccc2C1=O` (stereo unspecified): inactive: -10.9%. The same measure for `Cc1ccc(S(=O)(=O)c2c(Nc3cc(C)ccc3C)sc(C(=O)c3ccc4c(c3)OCO4)c2N)cc1`: inactive: -24.6%; for `CC(=O)c1c(C)oc2ccc(N(C(=O)Oc3ccccc3)S(=O)(=O)c3ccccc3)cc12`: inactive: -27.5%; for `CC1CCCN(c2c(S(=O)(=O)c3ccccc3)cnc3ccc(Cl)cc23)C1` (stereo unspecified): inactive: -10.7%. The same measure for `CC(CNC(=O)c1cc(-c2ccccc2)n[nH]1)c1ccccc1` (stereo unspecified): inactive: 13.6%. `COc1ccc(CCN2C(=O)N(c3ccc(C)cc3)C(=O)C2CC(=O)Nc2ccc(F)cc2)cc1` (stereo unspecified): the activation is inactive: -2.77%. Then `Cc1nn(C(=O)COc2ccccc2Br)c(C)c1Sc1ccccc1`, with inactive: 22.4%; and `Nc1cc(=O)nc(SCC(=O)Nc2ccc(F)cc2)n1-c1cccc(Cl)c1`, with inactive: -2.24%.

Turning to `Cc1cccc(N2CCN(C(=O)c3c(C)oc4ncnc(N5CCOCC5)c34)CC2)c1C`, the activation is inactive: -11%. With `COc1ccc(C)cc1NC(=O)c1cc(S(=O)(=O)N2CCC(C)CC2)cn1C`, the activation was inactive: -9.5%. Then `O=C(OCC1(COC(=O)c2cccnc2)CCCC(COC(=O)c2cccnc2)(COC(=O)c2cccnc2)C1O)c1cccnc1`, with inactive: 9.04%; and `COc1ccc(CN2C(=O)N(c3ccc(F)cc3)C(=O)C2CC(=O)Nc2cc(OC)cc(OC)c2)cc1` (stereo unspecified), with inactive: -9.92%; and `CCc1ccc(NC(=O)C(NS(=O)(=O)c2cccc3nsnc23)c2ccccc2)cc1` (stereo unspecified), with inactive: -34.5%. The same measure for `COc1ccc2c(CNCc3ccccc3OC)c(C(=O)O)n(Cc3ccc(F)cc3Cl)c2c1`: inactive: -5.63%; for `CCc1ccc(NC(=O)C2CCC(CNS(=O)(=O)c3ccc4c(c3)C(C)(C)C(=O)N4C)CC2)cc1` (stereo unspecified): inactive: -6.07%; for `Cc1cccc(NC(=O)c2sc3nc(-c4ccccc4)cn3c2C)c1C`: inactive: -9.18%.

Consider `COc1cccc(NC(=O)c2sc3nc(C)c(C(=O)Nc4ccc(Cl)cc4)c(-c4ccc(Br)cc4)c3c2N)c1`, for which the activation was inactive: -15.2%. Then `O=C(CSc1n[nH]c(-c2ccccc2)n1)N1CCN(c2ccccc2F)CC1`, with inactive: -5.78%. Then `Cn1c(=O)c2[nH]cnc2n(C)c1=O`, with inactive: -2.7% and inactive: 2.07%; and `Cc1ccc(NC(=O)Cn2c(=O)c3ccccc3n3nncc23)cc1`, with inactive: -4.37%. Then `CCSc1oc(-c2ccco2)nc1S(=O)(=O)c1ccc(Br)cc1`, with inactive: -24.2%; and `CC(=O)c1ccc(Nc2nc3c(S(=O)(=O)c4ccccc4)nnn3c3ccc(Cl)cc23)cc1`, with inactive: -11.4%; and `Cc1[nH]c(=O)c(C#N)cc1-c1ccncc1`, with inactive: -6.24% and inactive: 0.285% and inactive: 2.09%. On to `CCN1c2ccccc2-c2nc(SCC(=O)NCc3ccccc3)ncc2S1(=O)=O`, for which the activation is inactive: -0.758%. The same measure for `COC(=O)CCNC(=O)NC(CCC(C)C)c1c(-n2cccc2)sc2c1CCN(C)C2` (stereo unspecified): inactive: -21.6%; for `CCCc1cc(=O)[nH]c(SCC(=O)N2CCN(c3ccccc3OC)CC2)n1`: inactive: -17.2%; for `COc1cc(NC(=O)c2cc3c(s2)-c2ccccc2OC3)cc(OC)c1OC`: inactive: -10.4%. The same measure for `CCCN(CCC)C(=O)Cn1c(=O)n(-c2ccc(Cl)cc2)c(=O)c2c3c(sc21)CCCCC3`: inactive: -4.19%. Then `Cc1ccc(-c2nn(-c3ccc(F)cc3)c3c2cnc2cc(F)c(F)cc23)cc1`, with inactive: -3.66%; and `CCC(=O)N1CCc2cc(S(=O)(=O)NCCC(=O)Nc3cc(C)ccc3OC)ccc21`, with inactive: -9.02%; and `Cc1ccc2nc(-c3ccc(O)cc3)c(Nc3ccc(Cl)cc3)n2c1`, with inactive: -15.8%. Consider `COc1ccccc1NC(=O)Cn1c(=O)n(CCC(=O)NCC2CCCO2)c(=O)c2cc(OC)c(OC)cc21` (stereo unspecified), for which the activation was inactive: 9.74%. Consider `COc1ccccc1-c1cc2nc(C)c(CCC(=O)O)c(C)n2n1`, for which the activation is inactive: -0.841%. The same measure for `Cc1nn(-c2ccc(N3CCCCC3)nn2)c(C)c1CCC(=O)NCc1ccc(OC(C)C)cc1`: inactive: -16.3%.

As for `CC(=O)c1cccc(Nc2nc(-c3cccc(C)c3)nc3ccccc23)c1`, the activation was inactive: -10.4%. Then `Cc1ccccc1C(=O)Nc1ccc(OCc2cc(=O)n3ccccc3n2)cc1`, with inactive: -15%; and `Cc1ccc(NC(=O)Cn2cc(S(=O)(=O)N3CCCC3)c(S(=O)(=O)N3CCCC3)c2)cc1F`, with inactive: -17.5%; and `Cc1ccc(CCNC(=O)c2c[nH]c3ccc(S(=O)(=O)Nc4ccc(C)cc4C)cc3c2=O)cc1`, with inactive: -21.9%.

On to `Cc1ccc(C)c(S(=O)(=O)c2nnn3c2nc(Nc2ccc(C)c(C)c2)c2ccccc23)c1`, for which the activation is inactive: 17.6%.

Regarding `COc1cccc(NC(=O)CCN2CCN(c3ccccc3)CC2)c1`, the activation was inactive: -4.96%. Then `COc1cccc(C(=O)NCC(c2ccc(N(C)C)cc2)N2CCc3ccccc32)c1` (stereo unspecified), with inactive: -31.5%.

Consider `CCOC(=O)/C(C#N)=C/c1ccc(-c2ccc(Br)cc2)o1`, for which the activation is inactive: 0.366%. Then `Cc1ccccc1-c1noc(-c2cccnc2N2CCN(c3ccccc3)CC2)n1`, with inactive: -9.01%; and `CCCCS(=O)(=O)CC(O)CSc1nc(-c2ccc(C)cc2)cc(-c2ccccc2)c1C#N` (stereo unspecified), with inactive: -23.4%.

With `COc1cccc(C(=O)Nc2cccc(-c3cn4ccsc4n3)c2)c1OC`, the activation is inactive: 0.663%. Then `CCc1cccc(NS(=O)(=O)c2ccc(-n3cccn3)cc2)c1`, with active: 85.9%; and `CCN(CC)C(=O)Cn1c(=O)n(-c2ccc(C)c(C)c2)c(=O)c2c3c(sc21)CCCCC3`, with inactive: -2.01%; and `CCOC(=O)c1ccc(NC(=O)CCn2c(=O)c3cccn3c3cccnc32)cc1`, with inactive: -12%. Then `O=C(Nc1ccc(F)cc1F)c1cc(-c2ccc(Cl)cc2)on1`, with inactive: 1.72%; and `O=C(NCCCN1CCN(c2ccc(F)cc2)CC1)c1cnn(-c2ccc(F)cc2)c1-n1cccc1`, with inactive: 35.8%. Then `CCc1ccc(NC(=O)CSc2ccc(-c3ccccn3)nn2)cc1`, with inactive: -3.44%. For the compound `COc1ccc(NC(=O)c2ccc3c(SCC(=O)O)c4c(nc3c2)CCCC4)c(OC)c1`, the activation is inactive: -6.89%.

On to `O=C(CN1C(=O)COc2ccc(S(=O)(=O)N3CCOCC3)cc21)N1CCN(c2cccc(Cl)c2)CC1`, for which the activation was inactive: 22%. For `C#CCSc1nc(-c2ccccc2)cc(-c2ccccc2)c1C#N`, the activation was inactive: -32%.

As to `Cc1ccc(-n2c3c(cc(-c4nc(-c5ccc(Cl)cc5)cs4)c2=O)C(=O)CC(C)(C)C3)cc1C`, the activation was inactive: -4.3%. Then `Cc1cc(Br)ccc1NC(=O)Cn1cc(S(=O)(=O)N2CCN(c3ccccc3F)CC2)c2ccccc2c1=O`, with inactive: -2.47%; and `COc1ccc(NC(=O)C2CCCN(c3ncnc4c3nc3n4CCCCC3)C2)c(OC)c1` (stereo unspecified), with inactive: -11.2%; and `COc1cc(NS(=O)(=O)c2cc3c(cc2C)N(C)CCO3)cc(OC)c1OC`, with inactive: -19.5%. As to `Cc1ccnc2c1NC(=O)c1cccnc1N2C1CC1`, the activation was inactive: -3.52%. For the compound `CN(C)CCC=C1c2ccccc2CCc2ccccc21`, the activation is inactive: 3.71% and inactive: -2.89%. The same measure for `Cc1ccc(C)c(N2CCN(C(=O)CCc3nnc4n(CC(C)C)c(=O)c5ccccc5n34)CC2)c1`: inactive: -4.62%; for `C#C[C@]1(O)CC[C@H]2[C@@H]3CCc4cc(OC5CCCC5)ccc4[C@H]3CC[C@@]21C`: active: 68%.
